# Measured values taken from PubChem BioAssay AID1347073 (National Center for Advancing Translational Sciences (NCATS), 2019).
# The whole screen tested about 45,000 compounds, of which about 200 (0.44%) were called active. Not shown: some 7% with an inconclusive outcome. Calls come from the whole dose curve; as a rule, active = well fitted activation curve with a large enough effect; inconclusive = small, poorly fitted or top-dose-only effect; inactive = no such curve, though single readings can be large or run the other way. Some of the results follow.
# Experiment: qHTS of TDP-43 Inhibitors: NCGC Sytravon Library Screen; note: 0% is about no effect; nearly all actives have a fitted effect of over 55% in size
# Details: yeast TDP-43 toxicity rescue, BacTiter-Glo growth, 24 h; series mostly up to 46.1 µM; growth rescue (activation): at the top concentration
# Outline: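 TDP-43-expressing yeast, pregrown in raffinose, seeded at OD600 0.02 in galactose medium with compound for 24 hr at 30 deg C. Growth read by BacTiter-Glo luminescence, so rescue of toxicity appears as activation.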
row,SMILES,growth rescue (activation)
1,COc1ccc(C(C(=O)NCC2CCCO2)N(C(=O)CNC(=O)c2cccs2)c2ccc(C(C)=O)cc2)cc1OC (centres undefined),inactive: -4.65%
2,O=C(CSC(=S)N1CCCCC1)Nc1ncc2c(n1)CC(c1ccco1)CC2=O (centres undefined),inactive: 4.28%
3,CCN1/C(=C2\SC(=S)N(Cc3ccccc3)C2=O)Sc2ccccc21,inactive: 17.8%
4,O=C(Nc1cccc(S(=O)(=O)NC2=NCCCCC2)c1)c1cc(-c2ccccc2Cl)nc2ccccc12,inactive: 16.4%
5,COc1ccc(C(=O)NC2CC2)cc1OC1CCN(Cc2ccc(F)cc2F)CC1,inactive: -7.4%
6,NS(=O)(=O)c1ccc(NC(=O)COC(=O)Cc2ccc(Cl)cc2)cc1,inactive: 5.82%
7,O=C(O)c1ccccc1NS(=O)(=O)c1ccc(NNC(=S)Nc2ccc(OC(F)F)cc2)c([N+](=O)[O-])c1,inactive: -18.5%
8,CN(Cc1nc(Cc2cccc(C(F)(F)F)c2)no1)C1CC(C)(C)NC(C)(C)C1,inactive: 11.8%
9,CC(=O)C1=C(C)NC(SCC(N)=O)=C(C#N)C1c1ccco1 (centres undefined),inactive: -1.01%
10,O=C(CSc1nnc(SCc2ccccc2)s1)N/N=C/C=C/c1ccco1,inactive: 15.5%
11,CSc1nc(NS(=O)(=O)c2cc(Br)ccc2Br)cc(=O)[nH]1,inactive: -8.5%
12,COc1ccc(CC(=O)N2CCC(C)(C(=O)NS(=O)(=O)C3CC3)C2)cc1OC (centres undefined),inactive: -3.35%
13,COC(=O)c1ccc(S(=O)(=O)NNC(=O)COc2ccc(C)cc2)cc1,inactive: 0.238%
14,CN(C)c1ccc(/C=C/c2nc3ccccc3c(=O)n2-c2ccc(C(=O)O)cc2)cc1,inactive: -5.61%
15,CN1CCN(C(c2ccc(Br)cc2)c2cc(Cl)c3cccnc3c2O)CC1 (centres undefined),inactive: -91.5%
16,CCCN1C(=O)NC2(O)C(=O)c3ccccc3C12O (centres undefined),inactive: 2.46%
17,COc1ccc(CCNC(=O)c2c(N)no[n+]2[O-])cc1OC,inactive: 21.7%
18,COCC(=O)NC1CCN(S(=O)(=O)c2cccc(C(C)=O)c2)CC1,inactive: -0.975%
19,CS(=O)(=O)N(CCc1ccccc1)CC(=O)N1CCCC1,inactive: 8.27%
20,COc1cc([N+](=O)[O-])ccc1NC(=O)Cc1ccc(F)cc1,inactive: -8.51%
21,Nn1cc(-c2ccccc2)nc1SCC(=O)N1CCN(S(=O)(=O)c2ccc3ccccc3c2)CC1,inactive: 0.436%
22,O=C(NCCCN1CCOCC1)c1ccc(NC(=O)C2COc3ccccc3O2)cc1 (centres undefined),inactive: 9.62%
23,O=C(O)CC1(CC(=O)Nc2ccc(C(F)(F)F)cc2)CCCC1,inactive: 8.56%
24,N#CC(=C(O)CN1CCN(c2ccccc2F)CC1)c1nc(-c2ccc(Cl)cc2)cs1,inactive: 5.76%
25,COc1ccccc1C(=O)NCC(=O)N/N=C/c1ccc2c(c1)OCO2,inactive: 18.7%
26,Cc1ccccc1C(=O)NC(C)c1ccc2c(c1)CCCC2 (centres undefined),inactive: 22.4%

row,SMILES,growth rescue (activation)
1,C/C(CC(=O)Nc1cc(C)ccn1)=N\NC(=O)c1ccncc1,inactive: -11.9%
2,Cc1ccc(Cl)cc1NC(=O)Cn1cc(C(F)(F)F)cc(Cl)c1=O,inactive: 3.02%
3,CN(C)S(=O)(=O)N1CCN(c2ccc([N+](=O)[O-])cc2)CC1,inactive: 5.23%
4,Cc1ccc(-c2nc(CSc3nc4ccccc4c(=O)n3CCO)cs2)cc1,inactive: -19.8%
5,CC(=O)c1ccc(NC(=O)NCc2ccc(F)cc2)cc1,inactive: 12.3%
6,O=C(O)CC(Cc1ccccc1)C(=O)Nc1ccc([N+](=O)[O-])cc1 (centres undefined),inactive: 9.55%
7,C=C(C)CN(CC)Cc1c(C(=O)N(C)CCCC)nc2ccccn12,inactive: 6.11%
8,COCCN1C(=O)c2[nH]nc(-c3ccccc3O)c2C1c1ccc(OC)cc1 (centres undefined),inactive: 6.36%
9,O=C(OCC(=O)N1CCCCC1)c1ccc(OC(F)(F)F)cc1,inactive: 11.2%
10,CCCOC(=O)Nc1cc(OC)ccc1[N+](=O)[O-],inactive: 24.6%
11,CSc1ccc(OC2(C)CCN(Cc3cc4ccccc4o3)C2)cc1 (centres undefined),inactive: 8.96%
12,COC(=O)c1cc2oc3ccccc3c2n1Cc1c(F)cccc1Cl,inactive: -10.9%
13,COc1cccc(NC(=O)CNC(=O)c2ccc(OC)c(OC)c2)c1,inactive: -12.2%
14,Cc1ccc(-c2nn(-c3ccccc3)cc2C(=O)N2CCOCC2)cc1C,inactive: 12.1%
15,COCCCNC(=O)CCCCCNS(=O)(=O)c1ccc(Br)cc1,inactive: -5.31%
16,c1cncc(CNc2ncnc3sc4c(c23)CCC4)c1,inactive: 10.6%
17,O=C(Nc1ccccc1-c1ccccc1)c1ccc(Cl)c([N+](=O)[O-])c1,inactive: 20.9%
18,S=C(Nc1cc(Cl)ccc1Oc1ccccc1)N1CCN(c2ccccn2)CC1,inactive: 11.2%
19,CCOC(=O)c1c(-c2ccccc2)csc1NC(=O)COc1ccc2c(C)cc(=O)oc2c1,inactive: 13.5%
20,COc1cc(/C=C/C(=O)N[C@@H](Cc2c[nH]c3ccccc23)C(=O)O)ccc1O,inactive: -1.18%
21,O=C(Cn1nc(C(F)(F)F)c2c1CCCC2)N1CCOCC1,inactive: 3.25%
22,CCc1nc2ccccc2c(C(=O)NCc2ccc(OC)cc2)c1C,inactive: 7.48%
23,C/C(=N\NC(N)=O)C1CC(CC(C)C)C(=O)O1 (centres undefined),inactive: 3.55%
24,COc1ccc(N(C(=O)CNC(=O)c2ccco2)C(C(=O)NCC2CCCO2)c2ccccc2)cc1OC (centres undefined),inactive: -23.8%
25,CCOc1cc(NC(=O)CCl)c(OCC)cc1NC(C)=O,inactive: -3.67%
26,Cc1cc(=O)oc2cc(OC(=O)c3nn(C(C)C)c(=O)c4ccccc34)ccc12,inactive: 11.3%

row,SMILES,growth rescue (activation)
1,CCCC1N2CC3([N+](=O)[O-])CN1CC([N+](=O)[O-])(C2)C3(C)C (centres undefined),inactive: -45.6%
2,Cc1ccc(NC(=O)CSc2ccc(C(N)=O)cc2[N+](=O)[O-])cc1,inactive: 0.108%
3,COc1ccc(NC(=O)c2cccc(NC(=O)C(C)C)c2)c([N+](=O)[O-])c1,inactive: 5.57%
4,CC(C)c1cc(C(=O)N2CCCC(Nc3ccc(F)cc3)C2)n[nH]1 (centres undefined),inactive: -10.4%
5,O=C1CC(N2CCN(Cc3ccc(Cl)cc3)CC2)C(=O)N1CCc1ccccc1 (centres undefined),inactive: -2.35%
6,O=C(NN1C(=O)/C(=C/C=C/c2ccccc2)SC1=S)c1ccncc1,inactive: 9.87%
7,Cc1ccc(NC(=O)COC(=O)c2nn(C)cc2Cl)cc1,inactive: 8.57%
8,CC(Sc1nnc(N)s1)C(=O)NNC(=O)c1cccc(Cl)c1 (centres undefined),inactive: 15.4%
9,O=c1c2ccccc2nc(SCc2nc3ccccc3s2)n1CCCO,inactive: -14.9%
10,OC[C@@H]1CN(Cc2ccc(-c3ccccc3)cc2)C[C@H](n2cnc3c(NCc4ccncc4)ncnc32)O1,inactive: 1.03%
11,CCOC(=O)c1c(NC(=O)Cn2cnc([N+](=O)[O-])n2)sc2c1CCCC2,inactive: 13.8%
12,Cc1ccc(CC(=O)Nc2ccc(S(=O)(=O)N3CCOCC3)cc2)cc1,inactive: 19.3%
13,CC12CN(C(=O)c3ccccc3Br)CC(C)(CN(C(=O)c3ccccc3Br)C1)C2=O,inactive: 13.8%
14,O=C(CN1CCCCC1)NCCNc1ccc(C(F)(F)F)cc1[N+](=O)[O-],inactive: -8.01%
15,COc1cc(C(=O)c2ccccc2)c(OC)cc1C(=O)Nc1ccc(O)cc1,inactive: 5.59%
16,CC(C)CNC(=O)C1(C)CCCN1C(=O)c1ccc2ccccc2n1 (centres undefined),inactive: 11%
17,COc1ccc(CNC(=O)c2ccc(-n3cncn3)c3ccoc23)cc1OC,inactive: 25%
18,Cc1c(C(=O)OC/C(O)=C(\C#N)c2nc3ccccc3[nH]2)oc2ccccc12,inactive: 3.34%
19,O=C(CSc1nc2ccccc2c(=O)n1-c1ccccc1F)NC1CC1,inactive: 8.64%
20,COc1ccc(-c2n[nH]c(=S)n2/N=C/C=C\c2ccccc2OC)cc1,inactive: -4.16%
21,CN(C)CCNc1ncnc2c1ncn2[C@H]1CN(Cc2ccc(-c3ccccc3)cc2)C[C@@H](CO)O1,inactive: -4.55%
22,O=S(=O)(Nc1ccc(Cc2ccncc2)cc1)c1ccc(Cl)s1,inactive: 1.12%
23,O=C(CCS(=O)(=O)c1ccccc1)Nc1ccc(Cl)cn1,inactive: -6.14%
24,CN1CCN(C(=O)c2cc(=O)c3cc(Cl)ccc3o2)CC1,inactive: 0.178%
25,O=C(COc1ncnc2sccc12)NC1CCCc2ccccc21 (centres undefined),inactive: -29.7%
26,COc1ccc(C2(C)NC(=O)NC2=O)cc1OC (centres undefined),inactive: 13.5%

row,SMILES,growth rescue (activation)
1,COc1ccc(NC(=O)NC2(C(=O)N3CCOCC3)CCCCC2)cc1,inactive: 10.9%
2,COc1ccc(CC(=O)NNC(=O)CSc2nc(C)c(C)c(=O)[nH]2)cc1,inactive: -1.09%
3,O=[N+]([O-])c1ccc(/C=N/Nc2nc(-c3ccccc3)c3cc(Br)ccc3n2)o1,inactive: 17.9%
4,CC(C)[C@H](NC(=O)c1ccccc1)C(=O)OCC(=O)N1CCCCCC1,inactive: -29.7%
5,O=C(O)CCCCCN1C(=O)C(O)=C(C(=O)/C=C/c2ccccc2)C1c1cccc([N+](=O)[O-])c1 (centres undefined),inactive: 19.2%
6,CC(C)Oc1ccc(CCc2nnc(SCC(=O)O)n2-c2ccccc2)cc1,inactive: 0.464%
7,Cc1[nH]c2ccccc2c1/C=N/NC(=O)CNC(=O)c1ccccc1,inactive: 10.6%
8,C/C(=N/N=C/c1ccc(N(C)C)cc1)c1ccccc1,inactive: 1.52%
9,COc1ccc(CNC(=O)COC(=O)CCCOc2ccc(Cl)cc2Cl)cc1OC,inactive: -18%
10,CC1(C(=O)NCc2cccc3ccccc23)CCN1Cc1ccc(-c2ccccc2)o1 (centres undefined),inactive: 14.1%
11,Cc1c(C)c2ccc(OS(C)(=O)=O)c(C)c2oc1=O,inactive: 23.1%
12,CCCCCN1CC(=O)N2Cc3[nH]c4ccccc4c3C[C@H]2C1=O,inactive: 3.2%
13,O=C(c1ccco1)N1N=C(c2ccncc2)CC1(O)C(F)(F)F (centres undefined),inactive: -6.76%
14,O=C(c1ccc([N+](=O)[O-])cc1)N1CCN(Cc2ccccc2[N+](=O)[O-])CC1,inactive: -0.638%
15,Cc1cccc(C)c1OCc1nc2c3cnn(-c4ccccc4Br)c3ncn2n1,inactive: 4.42%
16,COc1cc(NC(=O)c2cc(C3CC3)nc3c2c(C)nn3-c2ccc(C)cc2)cc(OC)c1,inactive: 9.82%
17,O=C(NCc1cccs1)c1ccc(Cl)c(S(=O)(=O)N2CCCC2)c1,inactive: 14.6%
18,CNS(=O)(=O)c1ccc(NC(=O)Nc2cccc(F)c2)cc1,inactive: 0.931%
19,CC1(C(=O)Nc2cccc3ncccc23)CCN1C(=O)C1(c2ccccc2)CC1 (centres undefined),inactive: 2.56%
20,O=S(=O)(c1ccc(Br)c2nsnc12)N1CCOCC1,inactive: 2.95%
21,O=C(COC(=O)COc1ccc(Cl)cc1Cl)NC1CCCC1,inactive: 1.39%
22,COC(=O)[C@@H]1CCCN1C(=O)CCc1nnc(CCC2CCCCC2)o1,inactive: -5.61%
23,Cc1ccc(NC(=O)C(=O)NCCOc2ccc(Cl)cc2)c(C)c1,inactive: 15.4%
24,Cc1ccc(-c2cnc(C(O)c3cccc(C)c3C)[nH]2)cc1 (centres undefined),inactive: 1.51%
25,CNC(=O)CNC(=O)Nc1ccc(C)cc1,inactive: -1.97%
26,Cc1ccc2nc(N3C(=O)C(O)=C(C(=O)c4cc5ccccc5o4)C3c3cccs3)sc2c1 (centres undefined),inactive: 3.51%
